In all, about 230,000 compounds went through this assay and about 3,600 (1.6%) were called active. The shares of active, inactive and inconclusive entries below differ from those in the screen. Calls come from the whole dose curve; as a rule, active = well fitted inhibition curve with a large enough effect (not every such curve was filed as active); inconclusive = small, poorly fitted or top-dose-only effect, or another doubt; inactive = no such curve, though single readings can be large or run the other way. Where the call is inconclusive, the potency comes from a doubtful curve fit.
What follows are compounds tested against Lysine-specific demethylase 4E (Homo sapiens) (UniProt B2RXH2) (assay: qHTS Assay for Inhibitors of Human Jumonji Domain Containing 2E (JMJD2E)). Conditions: JMJD2E catalytic domain, FDH-coupled NADH fluorescence (FDH is formaldehyde dehydrogenase); series mostly up to 57.1 µM; activity change, negative = inhibition: at the top concentration.
Note: nearly all actives have a fitted effect of over 50% in size.
Potency is the fitted concentration of half-maximal effect; tags give direction and shape of the fitted curve.
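Throughout, for activity change, negative = inhibition: 0% = wells with enzyme and -100% = buffer wells without enzyme.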

Chain of UniProt B2RXH2 (B2RXH2 whole entry, looked up, the tested form may be a part): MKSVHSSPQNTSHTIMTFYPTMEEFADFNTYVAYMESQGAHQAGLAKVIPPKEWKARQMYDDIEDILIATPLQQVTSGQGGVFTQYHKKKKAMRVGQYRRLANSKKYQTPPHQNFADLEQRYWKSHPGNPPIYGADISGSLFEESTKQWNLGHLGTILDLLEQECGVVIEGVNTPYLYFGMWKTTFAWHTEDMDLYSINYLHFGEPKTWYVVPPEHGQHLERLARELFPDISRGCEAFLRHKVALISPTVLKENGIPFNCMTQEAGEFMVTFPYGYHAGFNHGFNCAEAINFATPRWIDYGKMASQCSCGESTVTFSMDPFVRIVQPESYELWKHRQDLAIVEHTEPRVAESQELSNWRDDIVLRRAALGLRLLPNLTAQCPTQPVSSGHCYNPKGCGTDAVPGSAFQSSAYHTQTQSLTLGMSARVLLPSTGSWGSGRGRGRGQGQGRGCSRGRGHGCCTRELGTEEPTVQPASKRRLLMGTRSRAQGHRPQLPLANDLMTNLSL

Row | Compound | activity change, negative = inhibition | Potency
1 | Cc1ccccc1-n1nnnc1SCC(=O)N(C)C1CCS(=O)(=O)C1 (stereo unspecified) | inactive: -1.09% | 
2 | CC(C)C1S/C(=N/N=C/c2cccs2)NC1=O (stereo unspecified) | inactive: 7.98% | 
3 | Cc1nc2ccccc2cc1C(=O)N/N=C/c1ccccc1[N+](=O)[O-] | inactive: 3.79% | 
4 | CC(C)C(=O)N(Cc1cc(=O)[nH]c2ccccc12)c1ccccc1 |  | inconclusive: 39.8 µM [inhibitor, single point]
5 | CCn1c(CSCc2ccc(Cl)cc2)n[nH]c1=S | inactive: -21.4% | 
6 | Brc1ccc(C2Nc3cccc4cccc(c34)N2)o1 |  | active: 3.16 µM
7 | COCc1[nH]c(=S)c(C#N)cc1C(=O)OC |  | active: 25.1 µM
8 | CCOC(=O)c1cc2c(=O)n3ccccc3nc2n(CCOC)c1=NC(=O)c1c(-c2c(F)cccc2Cl)noc1C |  | inconclusive: 14.1 µM [inhibitor, partial curve]
9 | CCCCOc1ccc(NC(=S)Nc2cc(C)nc(SCCCC)n2)cc1 | inactive: 5.19% | 
10 | CCOCCCNCc1cccc(OC)c1 |  | inconclusive: 25.1 µM [inhibitor, single point]
11 | CCn1c2ccccc2c2cc(C3C(C#N)=C(C)NC(C)=C3C#N)ccc21 |  | inconclusive: 11.2 µM [inhibitor, partial curve]
12 | COC(=O)c1cc(OC)c(OC)cc1NC(=O)CCC1CCCC1 |  | inconclusive: 39.8 µM [inhibitor, single point]
13 | COc1cc(CN2CCN(c3cccc(C)c3C)CC2)cc(OC)c1O |  | inconclusive: 22.4 µM [inhibitor, single point]
14 | CCn1c(CSc2nnc(-c3cccnc3)n2-c2ccccc2C)nc2cc(C(=O)O)ccc21 |  | inconclusive: 28.2 µM [inhibitor, single point]
15 | CCS(=O)(=O)c1ccc2oc(Nc3ccc(C(C)C)cc3)nc2c1 |  | inconclusive: 35.5 µM [inhibitor, single point]
16 | Cc1ccc(C)c(NC2=NCC(=O)N2C2CCCCC2)c1 |  | inconclusive: 39.8 µM [inhibitor, single point]
17 | O=C(O)c1ccccc1NCN1C(=O)C2CC=C(Cl)CC2C1=O (stereo unspecified) |  | inconclusive: 25.1 µM [inhibitor, partial curve]
18 | O=C(O)c1ccccc1C(=O)Nc1ccc(-c2csc(-c3ccccc3)n2)cc1 |  | inconclusive: 39.8 µM [inhibitor, single point]
19 | CN(C)c1c(-c2ccccc2)cc(-c2ccccc2)[nH]c1=O |  | inconclusive: 35.5 µM [inhibitor, single point]
20 | O=C(Nc1nc(-c2ccccn2)cs1)c1cc2ccccc2o1 |  | inconclusive: 39.8 µM [inhibitor, single point]
21 | COc1ccc(-c2csc3nc(-c4ccccc4F)oc(=O)c23)cc1 |  | inconclusive: 31.6 µM [inhibitor, single point]
22 | O=C(Nc1nc(-c2ccccn2)cs1)C1CC(=O)N(c2ccc3c(c2)OCCO3)C1 (stereo unspecified) | inactive: -5.64% | 
23 | CCN(CC)S(=O)(=O)c1ccc(N/N=C(\C)c2ccc(OC)cc2O)nc1 |  | active: 31.6 µM
24 | CC(=O)OC(C)(C)C1Cc2cc3ccc(=O)oc3cc2O1 (stereo unspecified) |  | inconclusive: 28.2 µM [inhibitor, partial curve]

Row | Compound | activity change, negative = inhibition | Potency
25 | Cc1cc(C)nc(/N=C(\N)C2=C(O)CC(C)(C)CC2=O)n1 | inactive: -1.64% | 
26 | c1ccc(Oc2ccc(-c3ccnc4nc(N5CCOCC5)nn34)cc2)cc1 |  | inconclusive: 31.6 µM [inhibitor, partial curve]
27 | O=C(O)c1cccc(NC(=O)c2ccc3c(c2)C(=O)N(CC2CCCO2)C3=O)c1 (stereo unspecified) | inactive: -7.48% | 
28 | Cc1ccc([N+](=O)[O-])cc1-c1[nH]c(-c2ccc(O)c(O)c2)nc1-c1ccccc1 |  | inconclusive: 39.8 µM [inhibitor, single point]
29 | Nc1nc2nn(-c3ccccc3)nc2c(=O)[nH]1 |  | inconclusive: 20 µM [inhibitor, partial curve]
30 | COc1cc2c3c(c1)C1(C(=O)N3C(C)(C)C=C2C)C(C#N)=C(N)Oc2cc(O)ccc21 (stereo unspecified) |  | inconclusive: 28.2 µM [inhibitor, single point]
31 | O=C(NCc1ccccc1Cl)c1cnc2n(c1=O)CCS2 | inactive: -13.8% | 
32 | Cc1ccccc1CN1CCCNC1=O | inactive: -19.5% | 
33 | O=S(=O)(NCCc1ccc2c(c1)OCCO2)c1cccs1 | inactive: 0.726% | 
34 | COc1ccc(O)c(/C=N/NC(=S)Nc2cccc(S(=O)(=O)N(C)C)c2)c1 | inactive: -6.49% | 
35 | CCCCn1c(=O)c(Cc2ccccc2)c(O)c2ccccc21 |  | inconclusive: 14.1 µM [inhibitor, partial curve]
36 | COc1ccc(C(=O)Nc2ccccc2C(=O)N/N=C/c2cccc3ccccc23)cc1 |  | inconclusive: 39.8 µM [inhibitor, single point]
37 | O=C1C[C@H]2[C@H](CO)[C@@H](OC(=O)c3ccc(-c4ccccc4)cc3)C[C@H]2O1 |  | inconclusive: 39.8 µM [inhibitor, single point]
38 | Cc1ccc(C(=O)NCCn2cc(SCC(=O)Nc3cc(C)on3)c3ccccc32)cc1 | inactive: 3.22% | 
39 | CCN(CC)CCCC(C)n1c(-c2ccccc2)nc2c(NCc3ccccc3)nc(C)nc21 (stereo unspecified) |  | inconclusive: 25.1 µM [inhibitor, partial curve]
40 | CCC(C)C(NC(=O)/C(=C\c1ccccc1)NC(=O)c1ccc(OC)cc1)C(=O)O (stereo unspecified) |  | inconclusive: 25.1 µM [inhibitor, single point]
41 | COc1ccc(-c2nc3c(c4c2C[C@H](c2ccccc2)OC4)CN(C(=O)NCCc2c[nH]c4ccccc24)CC3)c(C)c1 | inactive: 2.83% [at 11.4 µM] | 
42 | c1coc(-c2ccnc3ncnn23)c1 |  | inconclusive: 14.1 µM [inhibitor, partial curve]
43 | COc1ccc2c(-c3cc4ccc(OCc5ccc(F)cc5)cc4oc3=O)cc(=O)oc2c1 |  | inconclusive: 39.8 µM [inhibitor, single point]
44 | CCOC(=O)N1CCC(N2C(=O)c3ccccc3C2Nc2ccc(C)cc2)CC1 (stereo unspecified) | inactive: -6.72% | 
45 | C/C(=N\NC(=O)c1ccc(N/N=C(\C)c2ccc(O)cc2)cc1)c1ccc(O)cc1 |  | inconclusive: 11.2 µM [inhibitor, partial curve]
46 | O=C(NCc1ccco1)c1ccc2nc3sc4c(c3c(=O)n2c1)CCCC4 |  | inconclusive: 28.2 µM [inhibitor, partial curve]
47 | Cc1nnc(NC(=O)c2sc3nc(-c4cccs4)cc(C(F)(F)F)c3c2N)s1 |  | inconclusive: 15.8 µM [inhibitor, partial curve]
48 | Cc1cccc(C(=O)Oc2csc(=S)n2C(=O)c2cccc(C)c2)c1 |  | inconclusive: 28.2 µM [inhibitor, single point]

Row | Compound | activity change, negative = inhibition | Potency
49 | COc1ccc(N2CCN(C(=O)c3ccc(COc4ccc5c(C)cc(=O)oc5c4)cc3)CC2)cc1 |  | inconclusive: 28.2 µM [inhibitor, partial curve]
50 | Cc1ccccc1C(OCCN(C(C)C)C(C)C)c1ccccc1 (stereo unspecified) |  | inconclusive: 31.6 µM [inhibitor, single point]
51 | COC(=O)c1nc2ccccn2c1F |  | inconclusive: 31.6 µM [inhibitor, partial curve]
52 | CC(C)OC(=O)c1cc2ccccc2[nH]1 |  | inconclusive: 28.2 µM [inhibitor, partial curve]
53 | COc1ccccc1Nc1nc(-c2sc(NC(=O)c3ccccc3)nc2C)cs1 | inactive: 2.47% | 
54 | COc1cc(C(=O)NC(=S)NNC(=O)c2cnccn2)cc(OC)c1OC |  | active: 11.2 µM
55 | CC(C)C(O)(C#CCN1CCCCCC1)c1ccccc1 (stereo unspecified) |  | inconclusive: 31.6 µM [inhibitor, single point]
56 | CC(CC(C)C(=O)Nc1ccccc1C(C)(C)C)C(=O)O (stereo unspecified) | inactive: 7.13% | 
57 | CO/N=C/NC(=O)N1OC[C@@H]2COc3ccc4ccccc4c3[C@@H]21 | inactive: 4.24% | 
58 | Nc1nnc(-c2ccc(Cl)cc2)s1 |  | inconclusive: 28.2 µM [inhibitor, single point]
59 | Cc1cc(C)c2c(=O)[nH]c(SCC(=O)N3CCCCC3)nc2n1 |  | inconclusive: 31.6 µM [inhibitor, single point]
60 | CCOc1ccccc1-c1nc2c(C(C)(C)C)nn(C)c2c(=O)[nH]1 |  | inconclusive: 39.8 µM [inhibitor, single point]
61 | CCOP(=O)(OCC)C(NC(=O)c1cccs1)C(F)(F)F (stereo unspecified) |  | inconclusive: 1.41 µM [inhibitor, full curve]
62 | c1coc(-c2nnc(-c3cccs3)o2)c1 |  | inconclusive: 28.2 µM [inhibitor, partial curve]
63 | CCOC(=O)c1cnn(-c2nc(-c3ccccc3F)cs2)c1C(F)(F)F |  | inconclusive: 25.1 µM [inhibitor, single point]
64 | COC(=O)c1c(NC(=O)C2COc3ccccc3O2)sc2c1CCN(C(C)=O)C2 (stereo unspecified) |  | inconclusive: 8.91 µM [inhibitor, single point]
65 | Cc1ccc(CNC(=O)CCS(=O)(=O)c2ccc(Br)cc2)cc1 |  | active: 11.2 µM
66 | O=C(COC(=O)CCSc1ccccc1)NCc1ccccc1 | inactive: 2.38% | 
67 | C=CCOc1cccc(C2C(C(=O)c3ccc(C)o3)=C(O)C(=O)N2Cc2ccncc2)c1 (stereo unspecified) |  | inconclusive: 39.8 µM [inhibitor, single point]
68 | COc1ccc(CC(=O)Nc2ccc(-c3cn4ccccc4n3)cc2)cc1OC |  | inconclusive: 25.1 µM [inhibitor, partial curve]
69 | CC1(OC(=O)C2CCCC2)C(=O)C=C2C=C(c3ccsc3)N(CCc3c[nH]c4ccccc34)C=C2C1=O (stereo unspecified) |  | inconclusive: 10 µM [inhibitor, partial curve]
70 | Cc1cccc[n+]1CC(=O)Nc1cccc([N+](=O)[O-])c1 | inactive: -12.8% | 
71 | CCOc1ccc(N(Cc2cc3cc(OC)ccc3[nH]c2=O)S(C)(=O)=O)cc1 |  | inconclusive: 25.1 µM [inhibitor, partial curve]

Reference: PubChem BioAssay AID2147 (National Center for Advancing Translational Sciences (NCATS), 2009)
